# Measured values taken from the supplement of paper PMC4967469.
# Lines with a small IC50 respond at low doses; where the fit passes the top or lowest dose, that dose stands as a limit. AUC sums up the same curve from the lowest dose to the 256-fold higher top dose: 1 means no effect, lower means more sensitive. For some assays here: Any top dose called inferred was derived from the fitted curves, not read from the paper.
# Experiments:
# Experiment in all cases: Viability of human cancer cell lines after 72 h of drug (GDSC screen)
# piperlongumine = compound: COc1cc(/C=C/C(=O)N2CCC=CC2=O)cc(OC)c1OC [piperlongumine]; conditions: top dose 10 µM
# Procedure: (§1)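 Human cancer cell lines in 384-well plates, medium with 10% serum, drug for 72 h over a 256-fold dose range (nine 2-fold or five 4-fold steps up to the top dose). Adherent lines were fixed and stained with the nucleic acid dye Syto60, suspension lines read with resazurin; signal relative to control wells, capped at 0 and 100%. One two-parameter sigmoid per drug and line, fitted in a mixed model over all curves with the slope shared within a line.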
# ABT-263 = compound: CC1(C)CCC(c2ccc(Cl)cc2)=C(CN2CCN(c3ccc(C(=O)NS(=O)(=O)c4ccc(N[C@H](CCN5CCOCC5)CSc5ccccc5)c(S(=O)(=O)C(F)(F)F)c4)cc3)CC2)C1 [ABT-263]; conditions: top dose 2 µM; top dose inferred
# Procedure: as §1
# GW 441756 = compound: Cn1cc(/C=C2\C(=O)Nc3cccnc32)c2ccccc21 [GW 441756]; conditions: top dose 2 µM; top dose inferred
# Procedure: as §1
# PIK-93 = compound: CC(=O)Nc1nc(C)c(-c2ccc(Cl)c(S(=O)(=O)NCCO)c2)s1 [PIK-93]; conditions: top dose 20 µM
# Procedure: as §1
cell line,measurement,setting,value
"HuH-7 (liver, adherent)",AUC,piperlongumine,0.738
same,IC50,piperlongumine,2980 nM
same,AUC,ABT-263,0.865
same,IC50,ABT-263,1750 nM
same,AUC,GW 441756,0.974
same,IC50,GW 441756,> 2000 nM
"RCH-ACV (B-cell leukaemia, suspension)",AUC,piperlongumine,0.836
same,IC50,piperlongumine,5060 nM
same,AUC,ABT-263,0.677
same,IC50,ABT-263,352 nM
same,AUC,GW 441756,0.985
same,IC50,GW 441756,> 2000 nM
"CL-34 (large intestine, adherent)",AUC,piperlongumine,0.821
same,IC50,piperlongumine,6570 nM
same,AUC,ABT-263,0.959
same,IC50,ABT-263,> 2000 nM
same,AUC,GW 441756,0.98
same,IC50,GW 441756,> 2000 nM
"PWR-1E (prostate, adherent)",AUC,piperlongumine,0.757
same,IC50,piperlongumine,3430 nM
same,AUC,ABT-263,0.969
same,IC50,ABT-263,> 2000 nM
"MDA-MB-157 (breast, adherent)",AUC,piperlongumine,0.788
same,IC50,piperlongumine,4520 nM
same,AUC,ABT-263,0.91
same,IC50,ABT-263,> 2000 nM
same,AUC,PIK-93,0.979
same,IC50,PIK-93,> 20000 nM
"MKN1 (stomach, adherent)",AUC,piperlongumine,0.732
same,IC50,piperlongumine,2980 nM
same,AUC,ABT-263,0.981
same,IC50,ABT-263,> 2000 nM
same,AUC,PIK-93,0.88
same,IC50,PIK-93,> 20000 nM
"VMRC-LCD (lung adenocarcinoma, adherent)",AUC,piperlongumine,0.814
same,IC50,piperlongumine,4350 nM
same,AUC,ABT-263,0.957
same,IC50,ABT-263,> 2000 nM
same,AUC,GW 441756,0.978
same,IC50,GW 441756,> 2000 nM
"NCI-N87 (stomach, adherent)",AUC,piperlongumine,0.932
same,IC50,piperlongumine,> 10000 nM
same,AUC,ABT-263,0.934
same,IC50,ABT-263,> 2000 nM
same,AUC,GW 441756,0.967
same,IC50,GW 441756,> 2000 nM
"SCC90 (head and neck, adherent)",AUC,piperlongumine,0.816
same,IC50,piperlongumine,8790 nM
same,AUC,ABT-263,0.916
same,IC50,ABT-263,> 2000 nM
same,AUC,GW 441756,0.837
same,IC50,GW 441756,> 2000 nM
"U-266 (myeloma, semi-adherent)",AUC,piperlongumine,0.828
same,IC50,piperlongumine,9410 nM
same,AUC,ABT-263,0.976
same,IC50,ABT-263,> 2000 nM
same,AUC,GW 441756,0.983
same,IC50,GW 441756,> 2000 nM
"MM1S (myeloma, suspension)",AUC,ABT-263,0.703
same,IC50,ABT-263,452 nM
same,AUC,GW 441756,0.982
same,IC50,GW 441756,> 2000 nM
"KNS-62 (lung squamous cell carcinoma, adherent)",AUC,piperlongumine,0.712
same,IC50,piperlongumine,3320 nM
same,AUC,ABT-263,0.933
same,IC50,ABT-263,> 2000 nM
same,AUC,GW 441756,0.936
same,IC50,GW 441756,> 2000 nM
"SU-DHL-10 (B-cell lymphoma, suspension)",AUC,piperlongumine,0.939
same,IC50,piperlongumine,8330 nM
same,AUC,ABT-263,0.998
same,IC50,ABT-263,> 2000 nM
same,AUC,PIK-93,0.261
same,IC50,PIK-93,330 nM
"NCI-H835 (lung carcinoid, suspension)",AUC,piperlongumine,0.819
same,IC50,piperlongumine,5330 nM
same,AUC,ABT-263,0.67
same,IC50,ABT-263,362 nM
same,AUC,GW 441756,0.988
same,IC50,GW 441756,> 2000 nM
"BCPAP (thyroid, adherent)",AUC,piperlongumine,0.733
same,IC50,piperlongumine,2680 nM
same,AUC,ABT-263,0.919
same,IC50,ABT-263,> 2000 nM
same,AUC,PIK-93,0.674
same,IC50,PIK-93,3620 nM
"NCI-H2030 (lung adenocarcinoma, adherent)",AUC,piperlongumine,0.77
same,IC50,piperlongumine,4350 nM
same,AUC,ABT-263,0.958
same,IC50,ABT-263,> 2000 nM
same,AUC,PIK-93,0.787
same,IC50,PIK-93,10100 nM
"CAL-54 (kidney, adherent)",AUC,piperlongumine,0.81
same,IC50,piperlongumine,6230 nM
same,AUC,ABT-263,0.958
same,IC50,ABT-263,> 2000 nM
same,AUC,PIK-93,0.919
same,IC50,PIK-93,> 20000 nM
"OCI-LY7 (B-cell lymphoma, suspension)",AUC,piperlongumine,0.872
same,IC50,piperlongumine,5220 nM
same,AUC,ABT-263,0.612
same,IC50,ABT-263,232 nM
same,AUC,GW 441756,0.911
same,IC50,GW 441756,1370 nM
"SK-MEL-31 (melanoma, adherent)",AUC,piperlongumine,0.804
same,IC50,piperlongumine,6720 nM
same,AUC,ABT-263,0.898
same,IC50,ABT-263,> 2000 nM
same,AUC,GW 441756,0.914
same,IC50,GW 441756,> 2000 nM
